From PubChem BioAssay AID488969 (Vanderbilt High Throughput Screening Facility, 2010)
In all, about 110,000 compounds were measured (“z-score”: median about -0.1, highest 2% from about 2 on). The list shows a part of the results. Active and inactive are the calls of the source.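 The calls were made as follows: active = z-score in the third read window above 3 or below -3; inactive = the rest.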

molecular target: Metabotropic glutamate receptor 8 (Rattus norvegicus) (UniProt P70579); assay: rat mGluR8 modulators via GIRK flux, primary screen, cell-based, thallium flux, HTS (AID 488969); settings: HEK293 rat mGluR8, GIRK (G protein-gated inwardly rectifying potassium channel) thallium flux, FluoZin2; at 10 µM; stronger effect = higher value; submaximal glutamate (EC20) added with thallium
UniProt P70579, sequence (P70579 whole entry, looked up): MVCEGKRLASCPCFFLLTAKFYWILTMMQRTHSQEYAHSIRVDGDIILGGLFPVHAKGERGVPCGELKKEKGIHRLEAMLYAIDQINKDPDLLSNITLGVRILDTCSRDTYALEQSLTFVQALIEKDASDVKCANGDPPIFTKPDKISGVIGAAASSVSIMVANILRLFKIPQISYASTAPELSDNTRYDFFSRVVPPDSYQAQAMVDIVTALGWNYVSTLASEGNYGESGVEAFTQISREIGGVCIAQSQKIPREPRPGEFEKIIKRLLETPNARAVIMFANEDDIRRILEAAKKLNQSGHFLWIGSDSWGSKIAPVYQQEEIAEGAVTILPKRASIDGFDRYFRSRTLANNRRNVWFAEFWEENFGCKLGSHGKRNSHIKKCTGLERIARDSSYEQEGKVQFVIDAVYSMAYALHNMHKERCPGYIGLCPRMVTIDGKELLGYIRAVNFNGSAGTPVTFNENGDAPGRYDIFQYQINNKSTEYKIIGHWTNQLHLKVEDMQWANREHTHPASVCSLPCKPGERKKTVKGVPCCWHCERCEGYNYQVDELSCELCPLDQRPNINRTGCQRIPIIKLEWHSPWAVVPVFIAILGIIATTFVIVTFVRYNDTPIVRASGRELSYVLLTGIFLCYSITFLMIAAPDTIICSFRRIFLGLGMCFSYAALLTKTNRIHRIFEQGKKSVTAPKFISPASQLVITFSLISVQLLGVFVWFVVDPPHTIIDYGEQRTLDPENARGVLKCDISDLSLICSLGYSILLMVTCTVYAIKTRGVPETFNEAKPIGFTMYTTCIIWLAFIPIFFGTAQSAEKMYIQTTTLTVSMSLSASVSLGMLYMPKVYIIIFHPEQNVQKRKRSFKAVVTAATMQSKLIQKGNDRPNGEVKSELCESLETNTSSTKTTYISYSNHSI

Structure (SMILES) | z-score
COC(=O)c1c(-c2ccc(C)cc2)csc1NC(=S)NC(=O)c1cc(OC)cc(OC)c1 | 0.165
Cc1cc(C)c2c(c1)/C(=N/NS(=O)(=O)c1ccccc1)CCC2 | -1.09
COc1ccc(Cl)cc1C(=O)Nn1c(-c2cccs2)nc2ccccc2c1=O | 0.00602
O=C(NCC(c1cccs1)N1CCOCC1)c1ccc(Cl)s1 (centres undefined) | -0.181
CN=C1SC(CC(=O)Nc2ccc(C(=O)O)cc2)C(=O)N1C (centres undefined) | -0.426
O=C(NCc1ccccc1)c1ccc(Br)cc1Br | -0.339
CCCCCOc1ccc(NC(=O)CSc2cccc3cccnc23)cc1 | -0.746
CS(=O)(=O)Nc1ccc(C(=O)N2CCCCC2)cc1 | -0.17
CCCCCCOc1ccc(N2C(=O)CC(N3CCC(C(=O)OCC)CC3)C2=O)cc1 (centres undefined) | -0.526
CC(CCc1ccccc1)NC(=O)c1ccc(C(=O)NC(C)CCc2ccccc2)cc1 (centres undefined) | 0.659
COc1nc(Cl)cn(-c2ccc(Cl)cc2)c1=O | -0.155
Cc1cc(C)cc(OCc2ccc(C(=O)O)o2)c1 | -0.00131
Cc1cccc(N(C(=O)c2ccc(Cl)cc2)C2CS(=O)(=O)CC2OC(=O)c2ccc(Cl)cc2)c1 (centres undefined) | -0.0403
CC12CCC(C(=O)NCc3ccc4c(c3)OCO4)(OC1=O)C2(C)C (centres undefined) | -0.608
COC(=O)CN1C(c2ccc(Cl)cc2)=Nc2ccc(Cl)cc2C1c1ccccc1 (centres undefined) | -0.574
Cc1cccc(N=c2oc3cc(O)ccc3cc2C(N)=O)c1 | 0.0144
COc1ccccc1C1C(C(C)=O)=C(C)N=c2s/c(=C\c3cc(OC)c(OC)c(OC)c3)c(=O)n21 (centres undefined) | -0.467
COc1ccc(CSc2nncn2C)cc1[N+](=O)[O-] | -0.262
CCCc1nc(SCC(=O)N2CCCc3ccccc32)c2c(=O)n(C)c(=O)n(C)c2n1 | -1.35
COc1cc2c(cc1OC)CN(Cc1ccc(C)s1)CC2 | -0.241
O=C(CN1CCN(S(=O)(=O)c2ccccc2)CC1)Nc1ccc(Cl)c(Cl)c1 | -0.271
CCCc1[nH]nc2c1C(c1cn[nH]c1-c1ccc(F)cc1)C(C#N)=C(N)O2 (centres undefined) | 0.897

Structure (SMILES) | z-score
O=C(CCCSc1nc2ccccc2[nH]1)Nc1ccccc1 | 0.433
COCCn1c(Cc2ccccc2)nnc1SCc1ccc([N+](=O)[O-])cc1 | 0.0809
C1=Nc2c(NCc3ccccc3)ncnc2Oc2ccccc21 | -0.9
COc1ccc(Sc2nc3ccccc3n3c(C(F)(F)F)nnc23)cc1 | 0.0147
Cc1nc2oc(C(=O)c3ccccc3)c(N)c2c2c1COC(C)(C)C2 | 0.235
CCCC(=O)Nc1ccc(C(=O)Nc2nnc(COCC)s2)cc1 | -0.294
Cc1ccc(-c2nc3cc(Cl)ccc3o2)cc1 | 0.239
COC(=O)c1ccc(COc2cccc(OC)c2)o1 | -0.263
Cc1nn(-c2ccccc2)c(Cl)c1/C=N/Nc1ccc(S(=O)(=O)Nc2ccccc2C(=O)O)cc1[N+](=O)[O-] | -0.0266
CC(C)CN(CC(C)C)c1nc(N)c(C#N)c(CC#N)c1C#N | -0.436
CSc1ccccc1-n1nnnc1SCC(=O)Nc1ccccc1C | -0.294
COc1cc(/C=C2\CC/C(=C\c3cc(OC)c(OC)c(OC)c3)C2=O)cc(OC)c1OC | 0.0382
CC1=C(C(=O)OCc2ccccc2)C(c2cccnc2)c2c(n(C)c(=O)n(C)c2=O)N1 (centres undefined) | -0.21
Cc1[nH]n(C(N)=S)c(=O)c1C(c1ccccc1)C(C#N)C#N (centres undefined) | -0.000446
O=C(Nc1cc(Sc2ccccn2)cc([N+](=O)[O-])c1)c1cccc(Cl)c1 | -0.308
CC1=Nc2cc(C(=O)NCc3ccco3)ccc2Sc2ccc(C)cc21 | 0.368
Cc1cc(C)cc(NC(=S)N2CCN(c3ccc(F)cc3)CC2)c1 | -0.0575
O=C(CSc1nnc(-c2ccc(Cl)s2)o1)N1CCc2ccccc21 | -0.569
CC1(C)CNC(=O)c2sc(N3CCOCC3)nc2C1 | 0.579
CCCNC(=S)N1CCN(C(c2ccccc2)c2ccccc2)CC1 | -0.141
CC(C)(C)C(=O)NC(Nc1cccc2cccnc12)C(Cl)(Cl)Cl (centres undefined) | 0.273
Cc1ccc(-c2noc(CSc3nnnn3C3CCCCC3)n2)cc1 | -0.0984

Structure (SMILES) | z-score
CCOC(=O)CSc1nnc(CNC(=O)c2ccc(OC)cc2)n1Cc1ccccc1 | 0.573
Cc1ccsc1/C=N/NC(=O)c1cccs1 | 0.356
CC(=O)c1c(C)cc(C)c(CSc2nnc(-c3ccco3)o2)c1C | -0.15
COc1ccccc1N(CN1C(=O)c2ccccc2C1=O)C(=O)c1cccnc1 | 0.271
CCOC(=O)c1ccc(N(C(=O)c2cnccn2)C(C(=O)NC2CCCCC2)c2cn(C)nc2C)cc1 (centres undefined) | 0.17
CC(NC(=O)c1ccc(F)cc1)c1ccc(F)cc1 (centres undefined) | 0.139
COc1ccc(NC(=O)CCCn2c(=O)c3sccc3n(Cc3ccc(C)cc3)c2=O)cc1 | -0.662
CCOC(=O)N1CCN(C(=O)c2ccc(N3CCCC3=O)cc2)CC1 | 0.0663
CCc1nnc(NC(=O)c2ccc(OC)cc2OC)s1 | -0.3
Cc1cnc(NC(=O)c2ccc(-c3nc4ccccc4s3)o2)s1 | 0.55
CCOCCOC(=O)C1=C(C)N(C)C(=O)NC1c1ccccc1F (centres undefined) | -0.146
CCOc1ccc(-c2[nH]ncc2Oc2ccccc2OC)c(O)c1 | 1.27
CC(Oc1ccc(-c2ccccc2)c(F)c1)c1ccn(S(=O)(=O)c2cccc3ccccc23)n1 (centres undefined) | -0.191
Cc1ccc(/C=C(\CCC(=O)O)c2nc3ccccc3s2)cc1[N+](=O)[O-] | -1.63
CCCCCC1CC1C(=O)N/N=C/c1ccc(N(C)C)cc1 (centres undefined) | -3.78e-05
CCc1ccc(-c2cc(C(F)(F)F)n3nc(C(=O)Nc4cnn(Cc5ccc(C)cc5)c4)cc3n2)s1 | 0.425
CN(C)S(=O)(=O)N1CCN(CC(O)COc2ccc(C(=O)c3ccccc3)cc2)CC1 (centres undefined) | -0.781
Cc1cc(C)cc(OCC(=O)N2N=C(C(F)(F)F)CC2(O)C(C)(C)C)c1 (centres undefined) | active: 4.9
Cc1ccc(C(c2nnnn2C2CCCC2)N2c3ccccc3CC2C)cc1 (centres undefined) | 0.00667
Cc1cccc(N2C(=O)C3C4CC(C(Br)C4Br)C3C2=O)n1 (centres undefined) | -0.037
Cc1ccc(C(=O)NC(=S)Nc2cccc(-c3nc4ccccc4s3)c2)cc1 | 0.0946
CCOC(=O)Cc1nnc(NC(=O)C(CC)Sc2nnc3c4ccccc4n(C)c3n2)s1 (centres undefined) | -0.294

Structure (SMILES) | z-score
O=P(OC1CCCCC1)(OC1CCCCC1)C(O)c1ccc(Cl)cc1Cl (centres undefined) | -0.0565
O=c1oc2cc(Oc3ccc(C(F)(F)F)cc3[N+](=O)[O-])ccc2c2c1CCCC2 | 0.234
C#CC[N+](C)(C)CC#Cc1ccc(Cl)cc1 | 0.842
CCn1c(SCc2nc(-c3ccc(Cl)cc3)no2)nnc1-c1ccco1 | -0.0817
Cc1[nH]c2ccccc2c1C(=O)CN1CCCC1 | -1.99
O=C(N/N=C1\CCCc2ccccc21)c1cccc([N+](=O)[O-])c1 | -0.275
CC(=O)Oc1cc2c(C(C)=O)coc2c2ccccc12 | 0.821
Cc1nc2[nH]onc2c2nccc(=O)c12 | -0.354
COc1ccc(Cc2nnc(-c3ccc(F)cc3)o2)cc1OC | 0.266
CCn1c(=O)cc(SCC(=O)NCc2ccc(C)o2)c2ccccc21 | 0.121
Nc1nc(C2CCCCC2)cs1 | 0.293
COc1ccccc1OCc1nc(C#N)c(N2CCC(C(N)=O)CC2)o1 | 0.0831
Cc1ccc(C(=O)Nc2ccccc2OC(F)F)cc1 | -0.453
CCc1ccc(NC(=O)N(CCCN2CCOCC2)Cc2cccs2)cc1 | -0.617
N#Cc1c2c(c(NCc3ccco3)n3c1nc1ccccc13)CCC2 | -2.19
CON(C)c1nc(OCC#N)nc(N(C)C)n1 | 0.0137
Cc1ccc(CSCC(=O)Nc2c(C)n(C)n(-c3ccccc3)c2=O)cc1 | -0.099
O=C(COC(=O)CCC1CCCCC1)Nc1ccc(OC(F)F)cc1 | 0.594
COc1cc(/C=C2/C(=O)ON=C2c2ccccc2)ccc1O | -0.382
COc1ccc(NC(=O)C2CCCN(C)C2)cc1OCC(C)C (centres undefined) | 0.0222
CC(=O)Nc1ccc(S(=O)(=O)Nc2nc(C)cc(-n3nc(C)cc3C)n2)cc1 | -0.313
Cc1cccc(N2CCN(C(=O)C3CCN(S(=O)(=O)c4cccnc4)CC3)CC2)c1C | -0.429

Structure (SMILES) | z-score
Cc1cc(-c2c(C)[nH]n(-c3ccc(Cl)cc3)c2=O)n(-c2ccc(Cl)cc2)n1 | -0.308
O=C1c2ccccc2C(=O)N1c1cccc(-c2nc3ccccc3o2)c1 | 1.29
Cn1c(SCC(=O)c2c(N)n(C)c(=O)n(C)c2=O)nnc1-c1ccccc1 | -0.21
COc1cc(-c2noc(CCCC(=O)NCc3ccco3)n2)cc(OC)c1OC | -0.483
CCOc1ccc(C2NC(=O)c3ccccc3O2)cc1 (centres undefined) | -0.311
CC(=O)NNC(=S)Nc1cc(S(=O)(=O)N(C)C)ccc1C | -0.102
CCc1ccc(N2C(=O)c3cc(N4CCOCC4)c([N+](=O)[O-])cc3C2=O)cc1 | 0.302
Cc1ccccc1-c1cc(C(=O)Nc2sc(C(=O)OC(C)C)c(C)c2C#N)c2ccccc2n1 | -0.876
S=c1sc2c(N3CCN(Cc4ccccc4)CC3)ncnc2n1-c1ccccc1 | 0.467
O=C(Cn1nnc(-c2ccccc2)n1)OC1CCOC1=O (centres undefined) | -0.898
O=C(/C=C/c1ccccc1)Nn1cnc2ccccc2c1=O | 0.498
COc1ccccc1-n1cnc2cc(NC(=O)c3ccco3)ccc21 | -0.134
O=C(NC1CCCC1)C(c1ccc(F)cc1)N(Cc1ccc(F)cc1)C(=O)c1ccn[nH]1 (centres undefined) | -0.494
CCOC(=O)/C=C1\SCC(=O)N1CC(=O)NC(C)C | 0.775
O=C(CN1C(=O)NC2(CCc3ccccc3C2)C1=O)Nc1ccc(F)cc1 (centres undefined) | -0.146
CCOCCCN1C(=O)C(O)=C(C(C)=O)C1c1cccs1 (centres undefined) | -0.0902
COCCCNc1ncnc2nc[nH]c12 | -0.223
Cc1cc(C)c(S(=O)(=O)N(CC(=O)NCc2cccnc2)C2CCCCC2)c(C)c1 | 0.497
CN1C(=O)c2ccccc2C(C(=O)NCCCN2CCCC2=O)C1c1c[nH]c2ccccc12 (centres undefined) | -0.179
CCC1CSC(Nc2ccc(C(=O)/C=C/c3cccc(C)c3)cc2)=N1 (centres undefined) | -0.0711
CCc1nc2cc([N+](=O)[O-])c([N+](=O)[O-])cc2[nH]1 | -0.0776
